Measured values taken from PubChem BioAssay (NCI).
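Where inhibition never reached the appropriate level, the endpoint shown equals the highest concentration tested. Otherwise, values were interpolated linearly from a five-concentration, 48-hour dose response in 96-well plates. GI50: concentration for 50% inhibition of growth. The concentration for full growth arrest is given as TGI.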

tested on: NCI-H322M lung; test: inhibition of tumour cell growth, NCI panel, 48 h

| Compound | GI50 [µM] | TGI [µM] |
| --- | --- | --- |
| C#C[C@]1(O)CC[C@H]2[C@@H]3CC=C4c5sc(-c6ccc(C)cc6)nc5CC[C@]4(C)[C@H]3CC[C@@]21C | > 100 | > 100 |
| CS(=O)(=O)c1nccc(-c2c(-c3ccc(F)c(OCCc4ccccc4)c3)nc3sccn23)n1 | 15.2 | 30.2 |
| ClC(Cl)c1nc(-c2ccco2)n2nc(-c3ccccc3)cc2n1 | 1.37 | 4.9 |
| COc1cc(C)c(-c2ccc(OC)c(=O)cc2C)c(OC)c1OC | – | > 100 |
